# Results taken from the supplement of paper PMC11417369.
# This is one part of the list.
# System: PfHDP1 homeodomain (GST-tagged)
# Assay: gcPBM binding intensity (ln(normalized median fluorescence intensity)); higher = stronger DNA binding
# How it was run: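 GST-fused DNA-binding domains of P. falciparum, expressed in E. coli, were applied at about 25 μg on average for 1 h to an Agilent 4 × 180k array of primer-extended double-stranded 36-bp intergenic genomic probes and negative controls. Binding intensity is the highest Masliner-normalised natural-log median intensity across replicate spots of either probe orientation, measured with Alexa488 anti-GST antibody and a 488 nm scan.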
row,Sequence,gcPBM binding intensity (ln)
1,TAATAATAAAAAAATAGTACATAAATAAAAATAATA [XGTACX_site4774],6.66
2,CATTTATATAAATACACACACACAAAAAAAAAAAAA [CACACA_site5459],6.42
3,TTTATACATTTATATTGTACTAATTCGATTTTATAT [XGTACX_site5424],6.52
4,AAAGAAAAAGAAAAAGAAAAATTAGAATATAAAATA [CACACA_negctrl_site792],5.93
5,AATGATCATATATACACACACACAAAAAAAAAAAAA [CACACA_site4009],6.52
6,ATAATTTGTAAAAGGAGTACAAAACCATACTTTTTT [XGTACX_site6076],5.93
7,AAAGGAAAATTAAAAAGTACACATTTGAAAAAAAAA [XGTACX_site2724],6.37
8,ATGTATTTAATAAGAACACACATATATTTAATTTAA [CACACA_site5606],6.11
9,TTTTTTTTTTTAAGTTCACACATAAATTCGATTTAC [CACACA_site5057],6.35
10,ACCGTTTTTGTGTAATGTACAAAATTTCTGACAGTG [XGTACX_site4999],6.79
11,TATAAGTTTATATATACACACATATATATATATATA [CACACA_site3274],9.3
12,TTGTTAAAATTATTAAGTTAAATATCGATTTGTAAA [XGTACX_negctrl_site429],6.02
13,ATATTTATAACTTGTACACACAAATATGCATATATA [CACACA_site7583],7.12
14,TTAAAATTTTTTTTTTTTTTTTTTTTTTTTTTTTTC [CACACA_negctrl_site957],5.85
15,TTATTATTCCCTCATTTTGTTACCATTATTTCAATT [CACACA_negctrl_site1023],6.85
16,ATATATCATAATAAAAGTACTTATATATTTTATATA [XGTACX_site560],6.19
17,AAAATAAATAAATATACACACCATATATATATTTTT [CACACA_site5573],6.44
18,AAAAAAAAAAAAAACACACACACAAATACAAATACA [CACACA_site414],6.62
19,ATAAATAATTGTAGTTGTACATGATATTTTTATTAC [XGTACX_site550],6.27
20,TACAAAAAAAGATGATGTACAATGAAAAATAAGAAA [XGTACX_site5840],7.13
21,AAATGGACCTAATTATCACACATTATACTCGTTTTC [CACACA_site5996],6.36
22,AGTGAAAAAAAATTTACACACATAAAATATAAACGA [CACACA_site3724],6.64

row,Sequence,gcPBM binding intensity (ln)
1,TTTTTAGTTCATTAAACACACAAAAAAAAAAATAAA [CACACA_site6035],6.23
2,TTTTTTATTCTTTTTGCACACAGGAAATTTACAGAT [CACACA_site1090],10.6
3,TAATACTTTTAATCTACACACGCTGAGACATGCTTT [CACACA_site1484],6.14
4,AAAAAAAATATAAGTGGTACTCACATAAAGACATAT [XGTACX_site3709],6.75
5,AAATAAAATACATATAAACACACATATAAACCAACA [CACACA_site8789],7.1
6,TTATATAATCCTTTCAAACACACAAAATATAATTAA [CACACA_site1830],6.48
7,AAAATAAAAAGAAAAAATAAAAAGAAAAAATAAAAA [CACACA_negctrl_site120],5.96
8,TACAATTTATGACACACACACAATAATACCTATATA [CACACA_site6704],6.85
9,TATATATATATATGTGCACACATAAAGATATTATTT [CACACA_site3734],10.6
10,AAAAAAAAAAAACACACACACACACTAGTACATACA [CACACA_site4551],6.93
11,AATAAAATAATAGGCACACATATATATATATATTAT [CACACA_site273],6.71
12,ATATCCTACTTCTAGTGTACATATATGGACTGATGA [XGTACX_site3683],7.04
13,ATATATCTACATATATGTACATATATGTATATGTAT [XGTACX_site5432],6.55
14,GGGAATATATAAGATACACACACAAATTAAATATAA [CACACA_site8898],6.88
15,TGCCCTTTGGTTATAACACACATGCACACGTAAATA [CACACA_site7750],8.79
16,AATTAACCGTGACACACACACATATAAATATAAATA [CACACA_site7790],6.78
17,TATATATATATATATACACACACACCCACCAAAGCG [CACACA_site7904],9.48
18,TTTTTAATACAAAAAAAATAATATGTTATATTTCAA [CACACA_negctrl_site35],5.96
19,ATGAAATATGCACAGTGTACTTTTATGAGGAACATA [XGTACX_site426],9.9
20,AATCCTTTAAAACACACACACAAAAAAAAAAAAAAA [CACACA_site642],6.32
21,AAAATGTACTTTTTCTAAAGAGTAATGATGCTTGAT [CACACA_negctrl_site1124],6.36
22,TTTAACGTTGAATATACACACATATATTTATTTATA [CACACA_site7695],6.76

row,Sequence,gcPBM binding intensity (ln)
1,AATAAAAAAATAAAAAAAAAAAAAAATAAAAAAAAA [GTGCAC_negctrl_site12],5.94
2,CGTATTTTAATATTTACACACTTATTTTTTATATAA [CACACA_site125],6.66
3,TTTTGTAAAAGGTATATATATATATATATATATATA [GTGCAC_negctrl_site734],9.61
4,TTTATATAGAAAAATTGTACGAATTACTTTTTTATA [XGTACX_site6843],5.93
5,TATAGCATATTTCACACACACATAATGAATATTATA [CACACA_site3545],6.46
6,TGCTTCATAAATAAAACATGCAATATAGAAATTAAA [TGCATGCA_site690],6.44
7,TATAGTAAAATTAGGGTGCTTTTGTAACAAAAAAAA,6.71
8,TTATTTTCTTTCTATGCACACGCACGTATTTGCCCA [CACACA_site9104],9.79
9,AAATATATATACCACACACACATACCTCTATTTGTA [CACACA_site1854],6.84
10,AGAGTAGGAAATGGAAAAATAAAATAAATAAATAAA [XGTACX_negctrl_site69],6.4
11,AATAATATAAATATTACACACTAATTGTATTATAGA [CACACA_site6347],6.34
12,TATTAAATATTGTATACATGCAAATACTAGAAAATT [TGCATGCA_site370],7.09
13,AGGAAACAAGAAATGAAGAATCATGTAGAAGGCCCA [GTGCAC_negctrl_site187],6.04
14,TATATAACCGAGTGCACACACAAAAAAAAAGTGAAC [CACACA_site6806],10.8
15,ATATATATGAAACACACACACAAAAAAAAAAAAAAA [CACACA_site3647],6.43
16,ATAACACAAAATTGTTGTACACGTGTTAATAAGTGA [XGTACX_site4452],7.11
17,AATATTTATATAAATGCATGCTGATACAACAGTCTT [TGCATGCA_site21],6.72
18,TAAAGTTATGCAATAACACACATATACAATACATAT [CACACA_site6698],7.96
19,CACAGTGATATAAAAACACACATGAATTCTAATTTC [CACACA_site6884],6.19
20,AGGTATGTCTATAAATGTACATATGAGTTCAATTTC [XGTACX_site2244],6.58
21,AAATATATATAAACAAGTACATATTTAAAAAAAGGA [XGTACX_site2631],6.51
22,CATAAAAATATTAATAAACACACAATCAGATATTGA [CACACA_site9032],6.37

row,Sequence,gcPBM binding intensity (ln)
1,TTCGTAACTGATTCAACACACAAAAGGGGGAAAATT [CACACA_site1754],7.03
2,AAAAAGAAGAATAATACACACAAATTACTTTATATA [CACACA_site6984],6.33
3,TAAATTAAAAAAAATACACACACACCGACACATATA [CACACA_site9084],7.03
4,TATGTTATATAATATTGTACACAAAATGGTTTCTAT [XGTACX_site7686],6.73
5,AATTACAAATATTCATGTACATATTTATAAATACAT [XGTACX_site5430],6.43
6,ATATATATATATATGTGTACATATATTAAGATATAT [XGTACX_site1065],9.44
7,ATATTATAGAAATATACACACATTGTTTTATAGCAT [CACACA_site7177],6.54
8,ATATTACGCACAAAAAAAAAAAAAAAAAAAAAAAAA [CACACA_negctrl_site941],8.67
9,ATGATGTGCTTTAAAAGTACTTAAGTTATATTCTTT [XGTACX_site7127],6.4
10,AAAATTAAAATTTTCACACAGATATATTTACAATTT [CACACA_site5692],6.1
11,TTTATATGTATACAAACATATAAATATAAATGTATT [TGCATGCA_negctrl_site346],6.2
12,TATATATACATATACACACACACACCGATATATATA [CACACA_site8706],7.05
13,TGTTCTATGATTTGTACACACTTTTTTTTAAAATGC [CACACA_site5558],6.84
14,GTTTTGTACATATTCTCACACATATAAAAATACCCA [CACACA_site4446],7.02
15,AAGCATTTAATGTTTTATATAACATGTATTTTTTAT [CACACA_negctrl_site673],6.56
16,TTCATAATAAAAAGGTGTACATATATATATATATAT [XGTACX_site2829],9.47
17,AAAAAAATTTCACATTGTACTTTAATAATATACTAC [XGTACX_site7264],6.12
18,ATAAATATATATTTACGTACATATTATATATATATA [XGTACX_site6172],8.57
19,ACATATAAATTGTGTACACATATATATATATTTTTT [CACACA_site5946],6.94
20,GAATGCATGTAAATATGTACATATATTTAAAAATTT [XGTACX_site6032],6.73
21,CTTACTTACTTACTCACACACATATACAAAGAAAAA [CACACA_site3347],6.94
22,AAATATATGTTATATGTGCACTTTTTTTTTTTTTTT [GTGCAC_site9667],8.92
